Test results published in the supplement of paper PMC12217912.
The other results are listed elsewhere or left out. The full chains were built here from the parent and the listed change. Values near 0.05 are background.

B1: TEV protease; numbered along this chain (parent)
chain: MGESLFKGPRDYNPISSSICHLTNESDGHTTSLYGIGFGPFIITNKHLFRRNNGTLVVQSLHGVFKVKDTTTLQQHLVDGRDMIIIRMPKDFPPFPQKLKFREPQREERICLVTTNFQTKSMSSMVSDTSCTFPSGDGIFWKHWIQTKDGQCGSPLVSTRDGFIVGIHSASNFTNTNNYFTSVPKNFMELLTNQEAQQWVSGWRLNADSVLWGGHKVFMVKPEEPFQPVKEATQL

Variants of: B1
Assay: raw area under fraction-flipped curve 0-4 h after induction (AUC4h, not background-subtracted), DNA-recorder readout of cleavage of the substrate (dimensionless); higher = more cleavage of the substrate by the protease variant
Conditions: temperature: 34 °C; time window: 0-4 h after rhamnose induction
Method: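 In vivo DNA recorder in E. coli TOP10(DE3) ΔrhaA at 34 °C. Each TEVp single-site mutant (parent TEVp 0) is paired with a single-site variant of the 7-mer TEVs (canonical ENLYFQ|S). The substrate sits between flexible linkers in a Bxb1-sfGFP-TEVs-SsrA fusion, so cleavage stabilises Bxb1 and speeds flipping of a recombination array, read by NGS. The value is the raw area under the fraction-flipped curve over 0-4 h after rhamnose induction (AUC4h), with ≥20 reads per time point. It is not background-subtracted; inactive controls average about 0.047.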
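Also: Bxb1 expression induced with 0.2% (w/v) L-rhamnose at OD600 near 0.5, cultures sampled hourly, flipped fraction per protease–substrate barcode pair counted by paired-end Illumina sequencing.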

| Variant | area with substrate ENLYFAS | area with substrate ENLYFCS | area with substrate ENLYFES | area with substrate ENLYFFS | area with substrate ENLYFIS | area with substrate ENLYFKS | area with substrate ENLYFMS | area with substrate ENLYFNS | area with substrate ENLYFPS | area with substrate ENLYFRS | area with substrate ENLYFSS | area with substrate ENLYFTS | area with substrate ENLYFWS | area with substrate ENLYFYS | area with substrate ENLYFDS | area with substrate ENLYFLS | area with substrate ENLYFGS | area with substrate ENLYFHS | area with substrate ENLYFVS |
| --- | --- | --- | --- | --- | --- | --- | --- | --- | --- | --- | --- | --- | --- | --- | --- | --- | --- | --- | --- |
| T44F | 0.0506 | 0.0507 | 0.0588 | 0.0574 | 0.0479 | 0.0554 | 0.0459 | 0.0474 | 0.0486 | 0.0506 | 0.0472 | 0.0519 | 0.0469 | 0.0579 | – | – | – | – | – |
| L48A | 0.0324 | 0.0718 | 0.0609 | 0.0735 | 0.0591 | – | 0.063 | 0.0639 | 0.0588 | 0.0576 | 0.051 | 0.0562 | 0.0532 | – | 0.0642 | 0.0628 | – | – | – |
| L48C | 0.0511 | 0.0586 | 0.0608 | 0.0533 | 0.0592 | 0.0651 | – | 0.0639 | 0.062 | – | – | 0.0645 | – | – | – | – | 0.0575 | 0.0502 | 0.0487 |
| L48E | 0.0539 | 0.059 | 0.0588 | 0.0671 | 0.0584 | 0.064 | 0.0636 | – | 0.0607 | 0.06 | – | 0.0657 | – | – | 0.06 | – | – | – | – |
| L48F | 0.0718 | 0.0952 | 0.0662 | 0.0656 | 0.0589 | 0.0567 | 0.0658 | 0.0715 | 0.0578 | – | 0.0472 | 0.0622 | 0.0503 | – | – | – | – | 0.0667 | 0.0681 |
| L48G | 0.0588 | 0.0638 | 0.0584 | 0.0798 | 0.0545 | 0.0672 | 0.0603 | 0.0622 | 0.055 | 0.0631 | 0.0626 | 0.068 | 0.0602 | 0.0552 | 0.0612 | 0.0763 | 0.0471 | – | 0.0687 |
| L48I | 0.0624 | 0.0655 | 0.0569 | 0.0717 | 0.0559 | – | 0.0608 | 0.0603 | 0.0627 | 0.0805 | – | 0.0632 | 0.0538 | 0.0836 | 0.0561 | – | 0.058 | 0.0492 | – |
| L48K | 0.0534 | 0.0556 | 0.0654 | – | 0.0687 | – | 0.0626 | 0.0601 | 0.0642 | 0.0626 | 0.0429 | 0.0591 | – | – | 0.0527 | – | – | 0.0605 | – |
| L48N | 0.0527 | 0.0574 | 0.0593 | 0.0742 | 0.062 | 0.0621 | 0.0715 | 0.0663 | 0.0884 | 0.0717 | 0.0503 | 0.0524 | – | 0.0604 | – | 0.0716 | 0.0478 | 0.0523 | 0.0675 |
| L48Q | 0.048 | 0.0684 | 0.0528 | 0.0708 | 0.0496 | 0.0533 | 0.0624 | – | 0.0636 | – | 0.0468 | 0.0523 | 0.0589 | 0.0578 | 0.0636 | 0.0614 | – | 0.0466 | 0.0419 |
| L48R | 0.0646 | 0.0586 | 0.0632 | 0.0672 | 0.064 | 0.0555 | 0.055 | 0.0631 | 0.0675 | 0.0333 | 0.0667 | 0.084 | 0.0569 | 0.069 | – | 0.0609 | 0.0582 | 0.0534 | 0.0227 |
| L48S | 0.0734 | – | – | 0.07 | 0.0629 | 0.0572 | 0.059 | 0.0734 | 0.0603 | 0.0573 | – | 0.0493 | 0.049 | 0.0526 | – | 0.0638 | 0.0649 | 0.0511 | 0.0608 |
| L48V | 0.061 | 0.0512 | 0.0626 | 0.0753 | 0.0589 | 0.0607 | 0.0646 | 0.0649 | 0.0686 | 0.058 | – | 0.0663 | 0.059 | 0.0626 | 0.0655 | 0.0743 | – | 0.0438 | 0.0458 |
| L48W | 0.0417 | 0.0559 | 0.0537 | 0.0669 | 0.0546 | 0.0756 | 0.0367 | 0.0663 | 0.0523 | 0.0371 | – | 0.058 | 0.0568 | 0.0564 | 0.0615 | 0.0679 | – | 0.0582 | – |
| N52W | 0.0584 | – | 0.0647 | 0.0662 | 0.0591 | 0.0556 | 0.0652 | 0.0676 | 0.0679 | 0.0577 | 0.0644 | 0.0632 | 0.0521 | 0.0559 | – | 0.0723 | 0.0714 | 0.0525 | 0.049 |
| G54I | 0.0578 | 0.0491 | 0.0552 | 0.0568 | 0.0525 | 0.0558 | 0.061 | 0.059 | 0.0502 | 0.0511 | – | – | 0.0575 | 0.0392 | – | 0.0508 | – | 0.0572 | 0.0541 |
| L56C | 0.0591 | 0.0651 | 0.0406 | 0.07 | 0.0524 | – | 0.0591 | 0.0606 | – | – | 0.0719 | 0.0507 | 0.0436 | 0.0295 | 0.0687 | – | 0.0609 | 0.0629 | – |
| L56I | 0.0668 | 0.0545 | 0.0682 | – | 0.0371 | – | 0.0599 | 0.0666 | 0.0605 | 0.0747 | – | 0.0578 | – | 0.0572 | – | 0.0349 | 0.0598 | 0.0546 | – |
| L56P | 0.0437 | 0.0293 | 0.0501 | – | 0.0398 | 0.0589 | 0.0499 | 0.0501 | 0.0432 | 0.035 | 0.0621 | 0.0435 | 0.051 | 0.0366 | 0.0467 | – | – | 0.041 | 0.0397 |
| L56Q | 0.0327 | 0.0387 | 0.0423 | 0.059 | 0.0292 | 0.0472 | 0.0314 | – | 0.0422 | 0.0474 | – | 0.0388 | 0.0399 | 0.0469 | – | – | 0.0407 | 0.0594 | – |
| L56S | 0.0307 | – | 0.0633 | 0.053 | 0.0463 | 0.0542 | 0.0543 | 0.0518 | 0.0421 | 0.0546 | – | – | 0.0481 | – | 0.042 | – | 0.044 | 0.053 | 0.0357 |
| L56T | 0.0401 | 0.0551 | 0.0515 | 0.0781 | 0.0544 | 0.0669 | 0.0635 | – | 0.0553 | – | 0.0556 | 0.0398 | 0.0477 | 0.0637 | 0.0496 | – | – | 0.0547 | 0.0331 |
| L56W | 0.0608 | 0.0178 | 0.0674 | 0.0615 | 0.0574 | 0.0462 | 0.0604 | 0.0471 | 0.0529 | 0.0504 | 0.0595 | 0.0575 | 0.053 | 0.0617 | 0.0628 | – | 0.0528 | 0.0555 | 0.0835 |
